The list shows a part of the results.
Target: T1, OsWOX13 (Oryza sativa, UniProt Q5QMM3 1-267)
T1 sequence: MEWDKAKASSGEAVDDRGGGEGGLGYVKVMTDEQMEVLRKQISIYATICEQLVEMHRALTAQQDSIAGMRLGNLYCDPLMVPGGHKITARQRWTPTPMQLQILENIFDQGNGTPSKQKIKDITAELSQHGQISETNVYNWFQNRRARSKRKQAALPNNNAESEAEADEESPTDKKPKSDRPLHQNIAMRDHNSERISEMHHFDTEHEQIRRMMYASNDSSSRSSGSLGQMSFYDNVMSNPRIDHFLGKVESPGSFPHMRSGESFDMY
Assay: protein-binding microarray (RPBM); PBS, 2% BSA, 51.3 ng/ul salmon testes DNA, 50 uM zinc acetate, 200 nM TF, 25 C, 1 h; high values mean tight binding
Settings: protein: recombinant; tags: N-terminal polyhistidine and DsRed monomer fusion (pET32a); label: CyDye5-dUTP incorporated in the synthesized complementary strand; 3' TTTTT single-stranded linker to array surface; dsDNA, one strand shown
In short: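 Transcription factors were each fused at the N-terminus to a polyhistidine tag plus DsRed and expressed in E. coli BL21-CodonPlus before Ni–NTA purification. Binding to a double-stranded custom Agilent array was carried out with 200 nM protein at 25 °C for 1 h in PBS, 2% BSA, salmon testes DNA and 50 µM zinc acetate. The binding signal is per-feature fluorescence intensity, in arbitrary units, on an Axon 4000B scanner.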

Sequence | binding signal
TCCTTAACTGACAATGGCAAGATGGAAAATCCTATGCATGCGGAGTCACCTAGTGCAG | 35100 fluorescence intensity (a.u.)
TGATATGCATTAATTGACTTTTGCGTCAATATGACAAGCTCGGAGTCACCTAGTGCAG | 23800 fluorescence intensity (a.u.)
AATTATTTAATTATAATTTATTTATTTATCATCAAATTTTCGGAGTCACCTAGTGCAG | 13700 fluorescence intensity (a.u.)
AGTAATGTCATTGGCCTATCATATTCTGACTATGTTTTATCGGAGTCACCTAGTGCAG | 3710 fluorescence intensity (a.u.)
GAAGAATTGATACAGGATCGTCGTTTCTTTGCCAGCTGCGCGGAGTCACCTAGTGCAG | 6260 fluorescence intensity (a.u.)
CATTCTTAATAGATAATTTGTTTTATATCCCTCACCGTACCGGAGTCACCTAGTGCAG | 14900 fluorescence intensity (a.u.)
CACGTTGTACATCAATCAACCATCTTGTAGCAGCTACACGCGGAGTCACCTAGTGCAG | 12800 fluorescence intensity (a.u.)
ACATAAATTTATAATTCAAATTTTCTCAGGAAAATGGCAACGGAGTCACCTAGTGCAG | 16600 fluorescence intensity (a.u.)
CCGTTAGTTGTCCATCAACATTGACAGCTGAAAATGCCTTCGGAGTCACCTAGTGCAG | 5480 fluorescence intensity (a.u.)
AGAAAATTTAATCTTAAATATGGACATTACGAATGTACAACGGAGTCACCTAGTGCAG | 4110 fluorescence intensity (a.u.)
ATAATGATATGTTTCTAATATGATAGAATTTTGTAATGGTCGGAGTCACCTAGTGCAG | 8260 fluorescence intensity (a.u.)
ATCTATAATTACCAAAACTTGATAATGTAACGATGCCTAACGGAGTCACCTAGTGCAG | 18500 fluorescence intensity (a.u.)
CCAAATTGGCATGGAGGACAACAGGGAAGGCGATGATGAACGGAGTCACCTAGTGCAG | 19900 fluorescence intensity (a.u.)
ATAAATTAAATTTTATTCACTAATAACACATTTTGTCTCACGGAGTCACCTAGTGCAG | 17900 fluorescence intensity (a.u.)
CTGAAATTGGCCCAGTTTTATTAATGTGGGAGTAGTTTCCCGGAGTCACCTAGTGCAG | 7960 fluorescence intensity (a.u.)
GGAATGTCAATTAAACTCAATGTTTAGATGACAAACGACACGGAGTCACCTAGTGCAG | 18200 fluorescence intensity (a.u.)
CGAGTAGATAGATAGATTGACATACCTGCATAGTCGGAGACGGAGTCACCTAGTGCAG | 34300 fluorescence intensity (a.u.)
CATTAACAGAACATGCCCATAAGCATAACTCAACTTGCTGCGGAGTCACCTAGTGCAG | 6580 fluorescence intensity (a.u.)
CTGTTGAAATTTTGAGCACAAAGGATTCCCTCACATGCAGCGGAGTCACCTAGTGCAG | 4420 fluorescence intensity (a.u.)
ATGAAACTTTTCTATAATTAGTATTTTCATTGTTGTTAGACGGAGTCACCTAGTGCAG | 9460 fluorescence intensity (a.u.)
ACACCAACACAATTAATTAATTAATTAATACAACAAGTAACGGAGTCACCTAGTGCAG | 23700 fluorescence intensity (a.u.)

Sequence | binding signal
TCATGACTCGTAATTTAATCTTGATGTTGAGAGGTGCCTGCGGAGTCACCTAGTGCAG | 17300 fluorescence intensity (a.u.)
ATACATGGCAAATTTAATTAATGCCTTCAATACTTTTATCCGGAGTCACCTAGTGCAG | 4820 fluorescence intensity (a.u.)
GTAGTTAAATTGTTCAGCCATAATCGACGACAGGCGGAGACGGAGTCACCTAGTGCAG | 3320 fluorescence intensity (a.u.)
AAGAAATAGCTAATACTCAATCAATCATGTGCTAATGGACCGGAGTCACCTAGTGCAG | 10200 fluorescence intensity (a.u.)
ATAAAGACTGTTCAATCATGATGAAGCTTTACGTAAGCGGCGGAGTCACCTAGTGCAG | 34900 fluorescence intensity (a.u.)
GTAGAGTCCAATCCAATCCAATCCAATCTCCGCTGACATCCGGAGTCACCTAGTGCAG | 7270 fluorescence intensity (a.u.)
GCCACCACAAGGACAAGGTGATTAGAATAATTAATCTCAGCGGAGTCACCTAGTGCAG | 3380 fluorescence intensity (a.u.)
AAAATGATAAATAATTAAGCACGAATCTAGAAGAGGCATTCGGAGTCACCTAGTGCAG | 13200 fluorescence intensity (a.u.)
TTAATTACTCTTAACTATACTCTGTAATTAGCGGGTACTACGGAGTCACCTAGTGCAG | 21300 fluorescence intensity (a.u.)
TTCCTGATTTCCCCTTGCCGTCGCCAGCGTAGGCCCGTCCCGGAGTCACCTAGTGCAG | 3840 fluorescence intensity (a.u.)
TCTAGAGAATTAGCCCTGATTATAATGTGAGACTTTGCATCGGAGTCACCTAGTGCAG | 4870 fluorescence intensity (a.u.)
CTTTAATTGGTGCTTGTTAAACCTCTTAGTGCTTGTTAAACGGAGTCACCTAGTGCAG | 29200 fluorescence intensity (a.u.)
AGTTGATTATACTGTACATCAATATAATTCCCACATAACACGGAGTCACCTAGTGCAG | 16800 fluorescence intensity (a.u.)
CTGCTATAGATTGCTCTGTCCATTTACATTTGGTTTCTTGCGGAGTCACCTAGTGCAG | 5600 fluorescence intensity (a.u.)
ACCATTAATTATTATGCTCTTATAAGAAAATAATAATGCCCGGAGTCACCTAGTGCAG | 18300 fluorescence intensity (a.u.)
GATGATGAATGACACAAATGGAGCCATGAAGGATACATCACGGAGTCACCTAGTGCAG | 10700 fluorescence intensity (a.u.)
GTAAACTGCGAGACGAATTTATTAAGCCTAATTAATCCGTCGGAGTCACCTAGTGCAG | 13500 fluorescence intensity (a.u.)
AAAATATATAATCAATGTTACATTCGATAAAACTAATTTGCGGAGTCACCTAGTGCAG | 5270 fluorescence intensity (a.u.)
AGAGAATCCAATTAGTAAACAGAAGAGATGAGCACTAACTCGGAGTCACCTAGTGCAG | 4440 fluorescence intensity (a.u.)
GGTTTCTGATCAATTTTCGTCGAAAATGTAAACCCTGTTTCGGAGTCACCTAGTGCAG | 3360 fluorescence intensity (a.u.)
AGCAACTAACTGACGATTTACGCACATTTATACACTGCTACGGAGTCACCTAGTGCAG | 8220 fluorescence intensity (a.u.)

Sequence | binding signal
ACTTAGATGATATCATCCTGTCACTGTCACTAGTCCCACTCGGAGTCACCTAGTGCAG | 4300 fluorescence intensity (a.u.)
CCTAATTAGTCCATGATTAGTCATAAGTACTACAATAACCCGGAGTCACCTAGTGCAG | 33900 fluorescence intensity (a.u.)
AAATGAAATTAGGTCAAGATGTCAAATAATGGAAGCCCATCGGAGTCACCTAGTGCAG | 3420 fluorescence intensity (a.u.)
TGAATAATTAGATCTATTACAAGATTTGTTCTGGTGAGAACGGAGTCACCTAGTGCAG | 26000 fluorescence intensity (a.u.)
GCATGATCATTATTTTAACACTTCAGCTCCTCTATAACCCCGGAGTCACCTAGTGCAG | 5290 fluorescence intensity (a.u.)
CACTCCGTTTAATTGGAGGGAGTAGATCAGTAGATTGGTCCGGAGTCACCTAGTGCAG | 7660 fluorescence intensity (a.u.)
CTTGACTACTTTTATACATGCATGGTTGCTAATTGCATGGCGGAGTCACCTAGTGCAG | 5850 fluorescence intensity (a.u.)
GACGCTGATTTCTTATTGTTGTTATAGGAATTTGAATTTTCGGAGTCACCTAGTGCAG | 8700 fluorescence intensity (a.u.)
ATAACAATTATAATATCAAAATAGCATTTACCTGTTGCAACGGAGTCACCTAGTGCAG | 3270 fluorescence intensity (a.u.)
GATAATCATGTTCGATTTTAAAATCTCAATGACAATAAAGCGGAGTCACCTAGTGCAG | 3480 fluorescence intensity (a.u.)
CATTTTAAACATTAATTTATTTATATTATTTATTAACAACCGGAGTCACCTAGTGCAG | 8620 fluorescence intensity (a.u.)
GTTAATTTTGTCGAGTTAATTGGATCTTTGCTTTGATGGGCGGAGTCACCTAGTGCAG | 57600 fluorescence intensity (a.u.)
AACTAATTTAAATCGTGAGACGAATGTAACCCACATATGCCGGAGTCACCTAGTGCAG | 30500 fluorescence intensity (a.u.)
AATCAATTGTGAAAATTATCTTCACACGTTGTTATGCATACGGAGTCACCTAGTGCAG | 9260 fluorescence intensity (a.u.)
CTTAAATTTTATCAACAGCTGTAATGGAAGTCTTTCCTCACGGAGTCACCTAGTGCAG | 14900 fluorescence intensity (a.u.)
ATTGTATTTGATTAAAGACATTGTATTCTGGTGTCAATTGCGGAGTCACCTAGTGCAG | 3680 fluorescence intensity (a.u.)
TCCATAAAAGGTCAGAAATTGATTTACCTCTCCGAGCATACGGAGTCACCTAGTGCAG | 5260 fluorescence intensity (a.u.)
ATAGATCAATCACAAAAGACACGACATTTAACATGGAAAACGGAGTCACCTAGTGCAG | 8560 fluorescence intensity (a.u.)
AAACAAATTACATAATAGGTAAACTGCGAGACGGATTTATCGGAGTCACCTAGTGCAG | 23300 fluorescence intensity (a.u.)
ATCAGTCATAAATTGCTGTGCTAATGGATGAGGGACGCAGCGGAGTCACCTAGTGCAG | 6940 fluorescence intensity (a.u.)
GCCTGATTTGGGCCGGTAACACCGCCGTTTTCTAGGCCGGCGGAGTCACCTAGTGCAG | 15600 fluorescence intensity (a.u.)

Sequence | binding signal
CCATTAATTTAGGACATCTCGAGCAGACAGAAGCAGGAGGCGGAGTCACCTAGTGCAG | 13300 fluorescence intensity (a.u.)
TTCTAATTAAGTTTCCACTACATATGTGGCTTGCACTACACGGAGTCACCTAGTGCAG | 16000 fluorescence intensity (a.u.)
CTCGTTGAATTGATCACCTACCGTGCATTTGCATTTGGTTCGGAGTCACCTAGTGCAG | 3340 fluorescence intensity (a.u.)
TCAATGTCCAAAATGTCAATTAAAATGGAATCGAAGGGAGCGGAGTCACCTAGTGCAG | 5570 fluorescence intensity (a.u.)
TCTAGAGATGTATATGTTTGATTGCTTGAGACAATCTCTTCGGAGTCACCTAGTGCAG | 5900 fluorescence intensity (a.u.)
CACTAATGGAGTTGTTAGTGACAGGGCAGCTGCTCCTCTGCGGAGTCACCTAGTGCAG | 7300 fluorescence intensity (a.u.)
ATTAATCCACAATTATCAAAAGTTTACTGTAGCATCACATCGGAGTCACCTAGTGCAG | 5730 fluorescence intensity (a.u.)
ATAAAATGATGATTCCACAGAGAAGTTACGTACAGTCCTTCGGAGTCACCTAGTGCAG | 3810 fluorescence intensity (a.u.)
CCAAATGGGACAAAAGATTGAAAAGAAAACTGACAGCCGCCGGAGTCACCTAGTGCAG | 13900 fluorescence intensity (a.u.)
AATAATCAATAATCGTAAATGCGATAAATAAATTTCATAACGGAGTCACCTAGTGCAG | 11000 fluorescence intensity (a.u.)
ATTAAAGATTGAAATGTATAGACATCAATGGTGCGATTTTCGGAGTCACCTAGTGCAG | 14100 fluorescence intensity (a.u.)
ATCCATTCCGTTAATTAATCCAGAAATACTCCATTAGGCACGGAGTCACCTAGTGCAG | 7480 fluorescence intensity (a.u.)
TCTCATGTCTTCTATAAATTTAAACACAAATTGTAGTACTCGGAGTCACCTAGTGCAG | 4290 fluorescence intensity (a.u.)
CACACTGATTTGGTTCAATTCTGAACACCAAACATATTATCGGAGTCACCTAGTGCAG | 14000 fluorescence intensity (a.u.)
CATTTTAATTGACGTTTTGGACAATGGCACGGTCTACAAACGGAGTCACCTAGTGCAG | 36200 fluorescence intensity (a.u.)
ACATTCGAGATTTGCAGTCTCTATCAGTCACAAATAGGGGCGGAGTCACCTAGTGCAG | 3860 fluorescence intensity (a.u.)
GGGCTGTAATTATTTTCAGACAGAGAGAGTATCCAAATTCCGGAGTCACCTAGTGCAG | 6710 fluorescence intensity (a.u.)
CTATTAAATTGATTATATATGATTTGTAGTTTATAGTTGGCGGAGTCACCTAGTGCAG | 65100 fluorescence intensity (a.u.)
GGAATCGATGTTAATTTTGTTACAGTATAAGAGGACGGTACGGAGTCACCTAGTGCAG | 3270 fluorescence intensity (a.u.)
GCTAATTTAAATGTTTAAACTATGGTACTGATTGTTTTCTCGGAGTCACCTAGTGCAG | 33900 fluorescence intensity (a.u.)
AACGTATGATTGATTGAGTTTTAATTATTACAAACTTAAACGGAGTCACCTAGTGCAG | 35000 fluorescence intensity (a.u.)
